Consider 77 molecules from ChEMBL document CHEMBL1201862, “PubChem BioAssay data set” (2004).

The structures appear in SMILES notation.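 Interpolation was linear, between the two tested concentrations surrounding the appropriate level; five concentrations were tested over 48 hours in 96-well plates. At the GI50, growth is halved.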 Activity calls are given as the source filed them. Rule as the data show it: active = GI50 up to about 1.1 µM and inactive = higher. Where only a bound is given, the exact number is not on record here.

The test system of the test is NCI-H322M. Nature of the test: NCI-60 cell line screen, 48 h.
For `Fc1ccc(C(OCCN2CC3CCC(C2)N3CCCc2ccccc2)c2ccc(F)cc2)cc1`, the GI50 is inactive: 10.3 µM. The figure for `COc1ccc2cc(C(=O)CCC(=O)O)ccc2c1` is inactive: > 100 µM; for `C=CC(=O)N1C/C(=C\c2ccc([N+](=O)[O-])cc2)C(=O)/C(=C/c2ccc([N+](=O)[O-])cc2)C1` it is active: 0.794 µM. The figure for `O=C(NCCCl)Nc1ccccc1` is inactive: > 100 µM; for `NC(=S)N/N=C/c1c[nH]c2ccccc12` it is inactive: > 100 µM; for `O=C1/C(=C/c2ccc(Oc3ccccc3)cc2)N=C(c2ccccc2)N1c1ccc(S(=O)(=O)Nc2nccs2)cc1` it is inactive: 29.4 µM.

`Cc1ccc([N+](=O)[O-])cc1NC(=O)C(=O)Cc1cc(=O)oc2cc(O)ccc12`: the GI50 is inactive: > 100 µM.

Take `CCSc1c2cc(OC)ccc2nc2ccc(OC)cc12`: the GI50 is inactive: 19.1 µM. Then `CCC1OC(=O)CC(O)C(C)C(OC2OC(C)C(O)C(N(C)C)C2O)C(CC=O)CC(C)C(=O)/C=C/C2(C)OC2C1C` (configuration not stated), with inactive: 22 µM; and `COC(=O)c1c2c(cc3c1CC1(C3)Cc3cc4c(c(C(=O)OC)c3C1)CCCC4)CCCC2`, with inactive: > 100 µM.

`COc1ccccc1N/C(SCc1ccccc1)=C(/C(Cl)=C(Cl)Cl)[N+](=O)[O-]`: the GI50 was inactive: 27.9 µM. The figure for `CC1C=C(OC(=O)c2ccccc2)C(=O)C(n2cc(F)c(=O)n(C(=O)c3ccccc3)c2=O)O1` (configuration not stated) is inactive: > 100 µM. Then `CCc1cccc(C)c1NC(=O)CC1C(=O)Nc2ccccc2S1(=O)=O` (configuration not stated), with inactive: 19.1 µM; and `OCC1OC(O)C(/N=C\c2ccc3c(c2)OCO3)C(O)C1O` (configuration not stated), with inactive: > 100 µM. Turning to `O=C1CCC2(c3ccccc3)OCC([C@@H](O)c3ccccc3)N12` (some centres not stated), the GI50 is inactive: > 100 µM. `CCOc1cccc2nc3cccc(C(=O)NCCN(C)C)c3nc12`: the GI50 was inactive: 1.14 µM. Take `Cc1ccc(S(=O)(=O)N/N=C2/CC3CCC4CC2CC34)cc1` (configuration not stated): the GI50 is inactive: > 100 µM. The figure for `O=Cc1ccccc1OCCOc1cc(OCCOc2ccccc2C=O)c(OCCOc2ccccc2C=O)cc1OCCOc1ccccc1C=O` is inactive: 89.7 µM; for `CCCCNC(=O)Cn1c2ccc(Br)cc2c2nc3ccccc3nc21` it is inactive: > 100 µM; for `O=C(NC/C(Cl)=C/Cl)Nc1cccc2c1CCCC2` it is inactive: > 100 µM.

As to `COc1cc(CNc2nc3cc(C(F)(F)F)ccc3nc2C)cc(OC)c1OC`, the GI50 was inactive: 22.2 µM. Take `COc1cc(C2C(C(=O)Nc3cc(F)c(F)cc3F)=C(C)NC(C)=C2C(=O)Nc2cc(F)c(F)cc2F)ccc1O`: the GI50 was inactive: 23.9 µM. The figure for `Nn1c(Nc2ccc(S(=O)(=O)Nc3ncccn3)cc2)nnc(/C=C/c2c(O)ccc3ccccc23)c1=O` is inactive: 38.9 µM; for `CC(C)CCCC(C)[C@H]1CCC2[C@@H]3CCC4Cc5nc6c(nc5C[C@]4(C)C3CC[C@@]21C)CC1CC[C@@H]2C(CC[C@@]3(C)C2CC[C@@H]3O)[C@@]1(C)C6` (some centres not stated) it is inactive: > 100 µM; for `CC(=O)CC1=C(OC(C)C)C2(OCCO2)C1O` (configuration not stated) it is inactive: > 100 µM. Then `O=S1(=O)OCCOS(=O)(=O)C1(Br)Br`, with inactive: > 100 µM. Then `CCN(CC)CCCNc1nnc(C)c2[nH]c3ccccc3c12`, with inactive: 8.38 µM; and `COc1ccc2c(c1)CC1Cc3ccccc3CCN1C2` (configuration not stated), with inactive: 41.6 µM; and `COc1cccc2c1C(=O)c1c(O)c3c(c(O)c1C2=O)C[C@@](O)(C(=O)CN1CCOCC1)C[C@@H]3OC1CC(N)C(O)C(C)O1` (some centres not stated), with inactive: 10.1 µM. For the molecule `Cc1ccc(-c2n[nH]c(=O)n2/N=C\c2ccc([N+](=O)[O-])cc2)cc1`, the GI50 was inactive: > 100 µM. Then `CCn1c(=O)c2c(=O)[nH][nH]c2c2ccccc21`, with inactive: > 100 µM; and `CC(C)(C)OC(=O)Cn1ncn(NC(=O)Cc2ccccc2)c1=S`, with inactive: > 10 µM; and `C[C@@H]1OC(=O)C[C@H]2CC(=O)N(CCC3CN(S(=O)(=O)C(F)(F)F)c4ccccc43)C[C@@H]21` (some centres not stated), with inactive: > 100 µM. On to `CC(C)(C(=O)N(C(=O)N1CCN(c2ccccc2)CC1)S(=O)(=O)c1ccccc1)c1ccc(Cl)cc1`, for which the GI50 was inactive: 44 µM. Consider `C[N+]1(C)C2Cc3ccccc3C1Cc1ccccc12`, for which the GI50 is inactive: > 100 µM.

With `CC(C)NC(=O)OCc1c(COC(=O)NC(C)C)c(-c2ccc[n+](COC(=O)C(C)(C)C)c2)n2c1CCC2`, the GI50 is inactive: > 100 µM. Then `C=C(Br)C/N=C/N(C)C`, with inactive: > 100 µM; and `COc1cc(/C=N/N=C(\N)NO)ccc1O`, with inactive: 52 µM. Regarding `CC(=O)N1C(c2[nH]c3ccccc3c2Cc2ccccc2)CCN1c1ccccc1` (configuration not stated), the GI50 was inactive: > 10 µM.

For the molecule `O/N=C1\CC2(N3CCOCC3)CCC1(c1ccccc1)CC2`, the GI50 is inactive: > 100 µM. Then `CC12Oc3ccc4ccccc4c3C1c1c(ccc3ccccc13)O2` (configuration not stated), with inactive: > 100 µM. Then `COC(=O)/C=C\C(C#N)(C#N)/N=C/c1cccc(OC)c1`, with inactive: 17 µM; and `Brc1ccccc1/C=N\C12CC3CC(CC(C3)C1)C2`, with inactive: > 100 µM. For the molecule `COc1ccc(C[C@H]2NC[C@H](OC(C)=O)[C@H]2OC(C)=O)cc1`, the GI50 is active: 0.135 µM. Then `COC(=O)C1Cc2c([nH]c3ccccc23)-c2[nH]c3ccccc3c2CC(NC(C)=O)C(=O)NCC(=O)N1` (configuration not stated), with inactive: > 100 µM; and `COc1cc2c(cc1OC)C1C(O)C(OC)C(Br)C3(Br)CCN(C2)C13` (configuration not stated), with inactive: 75.7 µM. As for `CSc1nnc(COc2ccc(Cl)cc2)o1`, the GI50 was inactive: > 100 µM. Then `O=c1[nH]c(=O)n(COCc2ccccc2)cc1Nc1ccc(Br)cc1`, with inactive: > 100 µM; and `CCCCCCN(CCCCCC)C(=S)N/N=C(\C)c1ccccn1`, with active: 0.836 µM. For the molecule `O=C1O[C@H]2C3C4CCC(C4[C@@H]2I)[C@H]13` (some centres not stated), the GI50 is inactive: > 100 µM. Then `COc1cc(C(=O)N(C(=S)OCc2ccccn2)c2ccccc2)cc(OC)c1OC`, with inactive: > 100 µM; and `O=C1COc2cc3c(cc2N1)SCC(=O)N3`, with inactive: > 100 µM. The figure for `CC(C)OC(=O)NNc1c(Cl)cc(Cl)cc1Cl` is inactive: 26.3 µM. Then `OCC1c2ccccc2-n2nc(-c3ccccc3)c(O)c21` (configuration not stated), with inactive: 61.4 µM; and `CCOc1ccc(NC(=O)CC2SC(Nc3ccc(C)cc3C)=NC2=O)cc1` (configuration not stated), with inactive: 58.9 µM. Take `COc1cc(/C=C2\N=C(c3ccccc3)N(c3nc4c(OC)ccc(OC)c4s3)C2=O)ccc1O`: the GI50 is inactive: 81.3 µM. The figure for `C=C1C(=O)O[C@H]2C/C(C)=C/CC/C(C)=C/CC[C@@](C)(O)[C@@H](I)C[C@@H]12` is inactive: 13.3 µM. As for `COc1cc(/C=C(\NC(=O)c2ccccc2)c2nc3cc([N+](=O)[O-])ccc3[nH]2)cc(OC)c1OC`, the GI50 was inactive: 39.6 µM. For `C/C=C(\C)c1cc(=O)c2c(C)cc3c(c2o1)C(OC)(OC(C)=O)c1c(O)c(C2CC(C)(N(C)C)C(OC(C)=O)C(C)O2)cc(C2CC(N(C)C)C(OC(C)=O)C(C)O2)c1C3=O` (configuration not stated), the GI50 was active: 0.618 µM. Consider `COc1cc2c3c(c1OC)/C(=N/OS(=O)(=O)c1ccc(C)cc1)CC3N(S(=O)(=O)c1ccc(C)cc1)CC2` (configuration not stated), for which the GI50 is inactive: > 100 µM. The figure for `COc1ccc2c3c1OC1C34CCN(C)C(C2)C4=CC(I)C1(OC)OC` (configuration not stated) is inactive: 16.9 µM; for `C/C(=C\Cc1ccc(F)cc1)CCCCCC/C(C)=C/Cc1ccc(F)cc1` it is inactive: 30.8 µM. The figure for `COc1ccc2oc(OC)c(CC=C(C)C)c(=O)c2c1C` is inactive: > 100 µM; for `CCCCN(CCCC)CCCn1cnc2ncccc2c1=O` it is inactive: > 100 µM. Then `CCOc1ccc(NC(=O)C(=O)CC(=O)c2c(C)[n+]([O-])c3ccccc3[n+]2[O-])cc1`, with inactive: > 100 µM; and `C=C(Cl)CN1c2ccccc2C=Cc2ccccc21`, with inactive: 23.8 µM; and `CC(=O)Nc1ccc(-c2nnc(SCC(=O)Nc3ccc(C)cc3)o2)cc1`, with inactive: 30.5 µM. Regarding `COc1cc(C2c3cc4c(cc3[C@H](OCCN(C)C)[C@@H]3COC(=O)C23)OCO4)cc(OC)c1O` (some centres not stated), the GI50 was inactive: 1.97 µM.

With `CC[C@H](C)[C@H]1NC(=O)[C@@H](NC(=O)[C@@H](CC(C)C)N(C)C(=O)C2CCCN2C(=O)[C@H](C)O)[C@@H](C)OC(=O)[C@H](Cc2ccc(OC)cc2)N(C)C(=O)[C@@H]2CCCN2C(=O)[C@H](CCCCNC(=O)OCc2ccccc2)NC(=O)[C@H](C)C(=O)[C@H](C(C)C)OC(=O)C[C@@H]1O` (some centres not stated), the GI50 was inactive: 1.49 µM. With `CSc1ccc2c(cc1=O)C(NC(=O)c1ccc(OC(C)=O)cc1)CCc1cc(O)c(O)c(O)c1-2` (configuration not stated), the GI50 is inactive: 22.8 µM. The figure for `COc1cc(C2c3cc4c(cc3[C@@H](Nc3cccc([N+](=O)[O-])c3)C3COC(=O)[C@H]23)OCO4)cc(OC)c1O` (some centres not stated) is inactive: 21.4 µM. Then `CN(C)c1ccc(/C=N/NC(=S)Nc2ccccc2)cc1`, with inactive: > 100 µM.

As for `Cc1csc(-c2cn(C)c3c2C(=O)C(=N)C=C3O)n1`, the GI50 is inactive: 4.23 µM. The figure for `c1ccc2c(c1)OC(N1CCCC1)c1cnc(N3CCCC3)nc1-2` (configuration not stated) is inactive: 62.1 µM; for `CCCCCC(=O)OCC1(CO)C/C(=C/CC(C(C)C)C(C)C)C(=O)O1` (configuration not stated) it is inactive: > 75 µM.

For `CC(=O)O[C@H]1C[C@]2(O)[C@@H]3CC[C@@H]4C[C@@H](O)CC[C@]4(C)[C@H]3CC[C@]2(C)[C@H]1C1=CC(=O)OC1`, the GI50 was active: 0.111 µM. The figure for `CC1=CC(=O)[C@@H](O)[C@]2(C)[C@H]3[C@@]4(O)OC[C@@]35[C@@H](C[C@@H]12)OC(=O)C(OC(=O)CC1=CCCC1)[C@H]5[C@@H](C)[C@H]4O` (some centres not stated) is inactive: 1.77 µM.
